From the RNAGym collection of RNA variant scans (doi:10.1101/gad.245936.114) come the findings set out here.

B1: tRNA (parent)
chain: CUCUCGGUAGCCAAGUUGGUUUAAGGCGCAAGACUUUAAUUUAUCACUACGAAAUCUUGAGAUCGGGCGUUCGACUCGCCCCCGGGAGAUUUUUUCCUCGAGCAA

Variants at the floor of the assay are shown more often than the library holds them.

In this data set the parent is B1. In words: nonsense suppression (GFP-seq) (ratio to wild type); higher = more function; SUP4oc tRNA, yeast GFP reporter sort-seq. An outline of the steps: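 Raffinose/galactose medium with 80 mg/L adenine was used to grow yeast carrying genome-integrated tRNA variants (~3% random-mutation library), RFP, and a galactose-driven GFP ochre reporter. Cells went into GFP/RFP bins, which were Illumina-sequenced, and variants with ≥100 reads and ≥30 cells were scored. Nonsense suppression (GFPSEQ) is the per-bin median GFP/RFP weighted by estimated cell share and expressed relative to the unmutated parent tRNA.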
For the variant CUCUCGGUAGCCAAGUUGGUUUAAGGCGCAAGAGUUUAAUUUAUCACUACGAAAACUUGAGAUCGGGCGUUCGACUCGCCCCCGGGCGAUUUUUUCCUCGAGCAA, the nonsense suppression is at most 0.026.
For CUCUCGGUAGUCAAGUUGAUUUAAGGCGCAAGACUUUAAUUUAUCACUACGAAAUCUUGAGAUCGGGCGUUCGACUCGCCCCCGGGAGAUUUUUUCCUCGAGCAA the value was at most 0.026; for CUCUCGUUAGCCAAGUUGGUUUAAGGCGCAAGACUUUAAUUUAUCACUACGAAAUCUUGAGAUCGGGCGUUCGACUCGCCCCCGGGCGAUUUUUUCCUCGAGCAA, at most 0.026; for CUCUCGGUAGCCAAGUUGGUUUAGGUCGCAACACUUUAAUUUAUCACUACGAAAUCUUGAGAUCGGGCGUUCGACUCUGCCCCGGGAGAUUUUUUCCUCGAGCAA, at most 0.026.
For the variant CUCUCGGUAGCCAAGUUGGUUUAAGGCGCAAGACUUUAAUUUAUCACUACGAAAUCUUGAGAUAGGACGUUCGACUCGCCCCCGGAAGAUUUUUUCCUCGAGCAA, the nonsense suppression is at most 0.026.
AUCUCGGUAGCCAAGUUGGUUUAAGGCGCAAGCCUUUAAUUUAUCACUACGAAAUCUUGAGAUCGGGCGUUCGACUCGCCCCCGGGAUAUUUUUUCCUCGAGCAA: the nonsense suppression was at most 0.026.
In the case of CUCUCCGUAGCCACGUUGGUUUAAGACGCAAGACUUUAAUUUAUCACUACGAAAUCUUGAGAUCGGGCGUUCGACUCGCCCCCGGGAGAUUUUUUCCUCGAGCAA, the nonsense suppression was at most 0.026.
In the case of CUCUCGGUAGCCAAGUCGGUUUAAGGCGCAAGACUUUAAUUUAUCACUACGAAAUCUUGAUUUCGGGCGUUCGACUCGCCCCCGGGAGAUUUUUUCCUCGAGCAA, the nonsense suppression was at most 0.026.
Consider CUCUCGGUAGCCAAGUUGGUUUAAGGCGCAAGACUUUAAUUUAUCACUACGAAAUCUUUAGAUAGGGCGCUCGACUCGCCCCCGGGAGAUUUUUUCCUCGAGCAA, for which the nonsense suppression is at most 0.026.
For CUCUCGGUAGCCAAGUUGGUUUAAGGCGCAAGACUUUAAUUUAUCACUACGAAAUCUUGAGAUCGGGCGUUCAACUCGCCCCCCGGAGAUUUUUUCCUCGAGCAA the value was 0.361; for UUCUCGGUAGCCAAGUUGGUUUAAGGCGCAAGACUUUAAUUUAUCACUACGAAAUCUUGAGAUCGGACGUUCGACUCGCCCCCGGGAGAUUUUUUCCUCGAGCAA, at most 0.026; for CUCUCGGUAGCCAAGUUGGUUUAAGGCGCAAGACUUUAAUUUAUCACUACGAAAUUAUGAGAUCGGGCGUUCGCCUCGCCCCCGGGAGAUUUUUUCCUCGAGCAA, at most 0.026.
For CUCUAGGUAGUCAAGUUGGUCUAAGGCGCAGGACUUUAAUUUAUCACUACGAAAUCUUCAGAUCGGGCGUUCGACUCGCCCCCGGGAGAUUUUUUCCUCGAGCAA the value was at most 0.026.
In the case of CUCUCGGUAGCCAAGUUGGUUUUCGGCGCGAGGCUUUAAUUUAUCACUACGAAAUCUUGAGAUCGGGCGUUCGACUCGCUCCCGGGAGAUUUUUUCCUCGAGCAA, the nonsense suppression is at most 0.026.
Consider CUCUCGGUAGCCAAGUUGGUUUAAGGCGCAAGCUUUUAAUUUAUCACUACGAAAUCUUGAGAUCGGGCGCUCGACUCGCCCCCGGGAGAUUUUUUCCUCGAGCAA, for which the nonsense suppression is at most 0.026.
Consider CUCUCGGUAGCCAGGUUGGUUUAAGGCGCAACACUUUAAUUUAUCACUACGAAAUCUUGAGGUCGGUCGUUCGACUCGCCCCCGGGAGAUUUUUUCCUCGAGCAA, for which the nonsense suppression was at most 0.026.
For CUCUCGGUAGCCAAGUUGGUUUAAGGCACAAGACUUUAAUUUAUCACUACGAAAUUUUCAGAUCGGGCGUUCGACUCCCCCCCGGGAGAUUUUUUCCUCGAGCAA, the nonsense suppression was at most 0.026.
Regarding CUCUCGUUAGCCAAGUUGGUUUAAGGCGCAAGACUUUAAUUUAUCACUACGAAAUCUUGAGAUCGGGCGUUCGACGCGCCUCCGGGAGAUUUUUUCCUCGAGCAA, the nonsense suppression is at most 0.026.
For CUCUCGGUAGCCAAGUUGGUUUAAGGCGCAACACUUUAAUUUAUCACUACGAAAUCUUUAGAUCGGGCGUCCGACUCGCCCCCGGGAGAUUUUUUCCUCGAGCAA, the nonsense suppression was at most 0.026.
CUCUCGGUAGCCAAGUUAGUUUAAGGCGCAAGACUUUAAUUUAUCACUACGAAAUCUUGAGAUCGGGCGUUCGACUCGCCCCCGGGAAAUUUUUUCCUCGAGCAA: the nonsense suppression was at most 0.026.
With CUCUCGGUAGCCAAGUUGGUUUAAGGUGCGAGACUUUAAUUUAUCACUACGAAAUCUUGAUAUCGGGCGUUCGACUCGCCCCCGGGAGAUUUUUUCCUCGAGCAA, the nonsense suppression was at most 0.026.
For CUCUCGGAAGCCAAGUUGGUUUAAGGCGCAAGACUUUAAUUUAUCACUACGAAAUCUUGAGAUCGGGCGUUAGACUCGCCCCCGGGAGAUUUUUUCCUCGAGCAA the value was at most 0.026.
Regarding CUCUCGGUAGCCAAGUCGGUUUAAGGCGCACGACUUUAAUUUAUCACUACGAAAUCUUGAGAUCGGGCGUUCGACUCGCCCCCGGGAGAUUUUUUCCUCGAGCAA, the nonsense suppression was at most 0.026.
For CUCUCGGUAGCCAAGUUGGUUUAAGUGGCGAGACUUUAAUUUAUCACUACGAAAUCGUGAGAUUCGGCGUUCGACUCGCCCCCGGGAGAUUUUUUCCUCGAGCAA, the nonsense suppression is at most 0.026.
CUCUCGGUAACCAAGCGGGUUUAAGGCGCAAGACUUUAAUUUAUCACUACGAAAUCUUGAGAUCGGGCGUUCGACUCGCCCCCGGGAGAUUUUUUCCUCGAGCAA: the nonsense suppression is at most 0.026.
For the variant CUCUCGGUAGCCAAGUUGGUCGAAGGCGCAAGACUUUAAUUUAUCACUACGAAAUCUUGAGAUCAGGCGUUCGACUCGCCCCCGGGAGAUUUUUUCCUCGAGCAA, the nonsense suppression was at most 0.026.
CUCUCGGUAGCCAAGUUGGUUUAAGGCGAAAGACUUUAAUUUAUCACUACGAAAUCUUGAGAUCGGGCGUUAGACACGCCCCCGGGAGAUUUUUUCCUCGAGCAA: the nonsense suppression is at most 0.026.
